Measured values: PubChem BioAssay AID1569 (National Center for Advancing Translational Sciences (NCATS), 2009)
Inconclusive means that the source gave no clear call. Such entries were picked first, then a sample of the others. A potency beside an inconclusive call is a rough fit, not a confirmed value. Active and inactive are the calls of the source. The call rests on the fitted dose curve; in most records, active means well fitted inhibition curve with a large enough effect; inconclusive means small, poorly fitted or top-dose-only effect, or effect the other way, or another doubt; inactive means no such curve, though single readings can be large or run the other way.

Test: Confirmation Concentration-Response Assay for lipid storage modulators; further: nearly all actives have a fitted effect of over 80% in size;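 on activity change, negative = inhibition: -100% = full block of lipid deposition by 20 µM Triacsin C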
Details: Drosophila S3 cells, lipid droplet BODIPY/CellTracker ratio, 18-24 h; activity change, negative = inhibition: at 46.1 µM (top of the series)
Summary of the method: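 Cells at 5,000/well received compound as a titration plus oleic acid (added as 400 uM solution) and were incubated 18–24 h at 24 °C. BODIPY 493/503 lipid signal and CellTracker Red cell count were read by 488-nm laser-scanning cytometry. Activity was normalised to 20 uM Triacsin C.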
Potency means the concentration at half of the fitted maximal effect; tags describe the fitted curve by direction and shape.

Row | SMILES | Potency | activity change, negative = inhibition
1 | Cc1cnc(C(=O)OC(C)C(=O)c2c(C)[nH]c3ccccc23)cn1 (configuration not stated) | inconclusive: 6.28 µM [activator, full curve] | 
2 | COc1ccc(CCNC(=O)CCCOc2cccc(C)c2C)cc1OC |  | inactive: -9.33%
3 | O=C(CSc1nnc2c(n1)[nH]c1ccccc12)Nc1cccc(S(=O)(=O)N2CCOCC2)c1 | active: 15.8 µM | 
4 | CN(CC1CCCO1)S(=O)(=O)c1ccc(C(=O)Nc2ccc([N+](=O)[O-])cc2)cc1 (configuration not stated) | inconclusive: 1.58 µM [activator, full curve, poor fit] | 
5 | N#Cc1ccsc1NC(=O)CN1CCN(S(=O)(=O)c2cc(Cl)ccc2Cl)CC1 | active: 2.5 µM | 
6 | COc1ccccc1-c1nc(-c2ccc(C)nc2OC)no1 | inconclusive: 1.41 µM [activator, full curve] | 
7 | c1ccc(-c2nnc(N3CCN(c4ccccn4)CC3)c3ccccc23)cc1 | inconclusive: 1.25 µM [activator, full curve, poor fit] | 
8 | COc1cc2c(cc1OC)CN(CC(=O)Nc1ccc(S(=O)(=O)N(C)C)cc1)CC2 |  | inconclusive: 139% [activator]
9 | COc1ccc(CCNC(=O)c2sc3ccccc3c2Cl)cc1OC | inconclusive: 0.223 µM [activator, full curve, poor fit] | 
10 | CC1(C)Cc2c(cnn2-c2ccc(F)cc2)C(NC(=O)c2cnccn2)C1 (configuration not stated) | inconclusive: 22.3 µM [falling, single point] | 
11 | Cc1nn(C)c(C)c1CN(Cc1nc(CCC(C)C)no1)C(C)C | active: 12.5 µM | 
12 | O=C(Nc1ccc(S(=O)(=O)N2CCOCC2)cc1)c1c(F)cccc1F | inconclusive: 15.8 µM [activator, partial curve] | 
13 | O=C(NC1CCc2ccccc21)c1cc(COc2c(F)cccc2F)on1 (configuration not stated) | inconclusive: 11.2 µM [activator, partial curve] | 
14 | COC(=O)c1cc(C)sc1NC(=O)C1CC(=O)NN1Cc1ccccc1 (configuration not stated) | active: 1.41 µM | 
15 | O=C(NC1CCCc2c1cnn2-c1ccc(F)cc1F)c1ccccc1N1CCOCC1 (configuration not stated) | inconclusive: 6.28 µM [activator, partial curve, poor fit] | 
16 | CCC(=O)Nc1nonc1-c1nc2ccccc2n1CC(C)C | inconclusive: 1.99 µM [activator, full curve] | 
17 | CC(C)N1CCc2c(sc(NC(=O)c3ccc(S(=O)(=O)N4CCCCC4C)cc3)c2C(N)=O)C1 (configuration not stated) |  | inactive: -14.3%
18 | Cc1cc(C)nc(-n2ncc3c2CC(c2cccc(Cl)c2)CC3=O)n1 (configuration not stated) | inconclusive: 0.25 µM [activator, full curve] | 
19 | COc1ccc2c(Cl)c(C(=O)NCc3ccco3)sc2c1 | inconclusive: 3.97 µM [activator, full curve] | 
20 | CCOc1nc(Nc2ccc(OC)c(Cl)c2)nc(N2CCN(c3ccc(OC)cc3)CC2)n1 |  | inconclusive: 148% [activator]
21 | Cc1ccc(CNc2ccc3c(c2)OCO3)c(C)c1 | inconclusive: 2.5 µM [activator, partial curve, poor fit] | 
22 | CCCc1nnc(SCC(=O)Nc2ccccc2Cl)n1CC1CCCO1 (configuration not stated) | inconclusive: 5.6 µM [activator, partial curve] | 
23 | CCOc1ccc(CCNC(=O)COC(=O)/C=C/c2ccc(C)o2)cc1OCC | active: 0.499 µM | 
24 | COc1ccc(CCNC(=O)CSc2cn(Cc3cccc(C)c3)c3ccccc23)cc1OC | inconclusive: 28.1 µM [falling, partial curve, poor fit] | 
25 | CCOC(=O)c1c(NC(=S)Nc2ccc(C)cc2)sc2c1CCC2 |  | inconclusive: 234% [activator]
26 | COc1ccc(Nc2nc(-c3ccccc3)cs2)cc1 | inconclusive: 0.888 µM [activator, full curve] | 
27 | Cc1ccccc1NS(=O)(=O)c1ccc(C(=O)N2CCCCCCC2)cc1 | inconclusive: 3.97 µM [activator, full curve] | 
